Measurements reported in PMC6919601, “Identification of Plasmodium dipeptidyl aminopeptidase allosteric inhibitors by high throughput screening” (PLoS ONE, 2019).
Hit rate of the full screen: of about 110,000 compounds, about 230 (0.21%) showed an effect of 50% or more. This is one part of the list.

Biological target: DPAP1 (Plasmodium falciparum, UniProt Q8IIJ9)
Experiment: primary screen, percent inhibition; read by cleavage of a fluorogenic dipeptide substrate; higher = more effect of the substance
Set-up: species or system P. falciparum D10 trophozoite lysates; single well
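Also: 30 min substrate incubation versus DMSO and 10 µM JCP410 controls.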

DPAP1, sequence (Q8IIJ9 whole entry, looked up): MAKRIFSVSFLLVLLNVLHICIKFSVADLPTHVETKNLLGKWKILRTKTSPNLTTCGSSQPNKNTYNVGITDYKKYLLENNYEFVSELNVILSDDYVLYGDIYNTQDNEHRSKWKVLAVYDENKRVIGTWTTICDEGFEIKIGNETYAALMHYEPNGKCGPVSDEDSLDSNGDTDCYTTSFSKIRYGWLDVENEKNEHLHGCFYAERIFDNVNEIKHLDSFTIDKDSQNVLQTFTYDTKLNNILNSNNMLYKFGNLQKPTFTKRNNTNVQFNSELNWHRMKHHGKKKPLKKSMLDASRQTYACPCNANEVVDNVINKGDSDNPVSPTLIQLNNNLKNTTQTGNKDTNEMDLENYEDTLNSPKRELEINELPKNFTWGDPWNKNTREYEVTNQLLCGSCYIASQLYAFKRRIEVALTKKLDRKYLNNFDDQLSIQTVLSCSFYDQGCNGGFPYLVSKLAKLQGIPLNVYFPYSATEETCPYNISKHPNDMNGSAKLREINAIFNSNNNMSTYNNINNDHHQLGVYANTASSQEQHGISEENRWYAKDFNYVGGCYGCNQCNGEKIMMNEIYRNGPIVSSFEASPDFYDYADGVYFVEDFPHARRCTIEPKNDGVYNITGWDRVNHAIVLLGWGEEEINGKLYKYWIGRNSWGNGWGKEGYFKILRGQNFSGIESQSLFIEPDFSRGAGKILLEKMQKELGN

| SMILES | % Inhibition @ 10 uM |
| --- | --- |
| Cc1cccc(C)c1NC(=O)Nc1ccc(Cl)c(Cl)c1 | -5.9% |
| Oc1ccc(/C=C/c2cc(O)cc(O)c2)cc1 | 0.76% |
| CN(C)c1ccc(C=C2C(=O)NC(=O)NC2=O)cc1 | -5.5% |
| CCCCNC(=O)C(=O)c1c(O)[nH]c2ccccc12 | 2.56% |
| CC(CCc1ccc(O)cc1)NC1CCCCCC1 (stereo not shown) | -1.56% |
| CCC(C)Sc1nc2c(c(=O)[nH]c(=O)n2C)n1CC(O)COc1ccc(Cl)cc1 (stereo not shown) | 1.4% |
| CN1CCN(Cc2c(NC(=O)c3ccccc3)sc3c2CCCC3)CC1 | 0.222% |
| COc1ccc(S(=O)(=O)Nc2cc(C)ccc2C)cc1 | 3.47% |
| CCn1cc(C(=O)N2CCN(C3CCCCC3)CC2)c2cc(OC)c(OC)cc2c1=O | -7.1% |
| CCN1CCN(C2CCN(Cc3ccc(OC)c(OC)c3OC)CC2)CC1 | -4.84% |
| CC(C)Cc1ccc(S(=O)(=O)NC2CCN(Cc3ccccc3)CC2)cc1 | -4.07% |
| O=C(Nc1ccc(N2CCOCC2)cc1)C1(S(=O)(=O)c2ccccc2)CC1 | -4.16% |
| Cc1ccc(CNC(=O)CN(C)S(=O)(=O)c2ccc3[nH]c(-c4ccccc4)nc3c2)cc1 | -5.61% |
| Cc1cccn2c(=O)c(/C=C(\C#N)C(=O)NCC3CCCO3)c(Oc3ccccc3)nc12 (stereo not shown) | 0.315% |
| CCCNC(=O)CCn1c(-c2ccc(F)cc2)cc(C(C)=O)c1C | -9.31% |
| CC1CC(C)CN(C(=O)CNC(=S)N2CC3CC(C2)c2cccc(=O)n2C3)C1 (stereo not shown) | 4.36% |
| C=CCOc1c(CNc2cccc(C(=O)O)c2)cccc1OC | -1.61% |
| Fc1ccccc1CN1CCc2c([nH]c3ccccc23)C1 | 6.11% |
| CCOc1cc(/C=C2\SC(=O)N(CC(=O)N3CCOCC3)C2=O)cc(Br)c1OCC | 7.71% |
| CCOc1ccc(-c2c(C)nn3c2NCN(Cc2ccc(C)cc2)C3)cc1OCC | -2.88% |
| CN(CC#CC(C)(C)O)Cc1ccccc1 | -1.77% |
| COc1cc(OC)cc(C(=O)N2CCN(c3ccccc3)CC2)c1 | 9.83% |
| COc1ccccc1[C@@H](C)C[C@H](NC(=O)c1cc2c(C(F)(F)F)nn(C)c2s1)C(=O)NCC#N | 0.079% |
| COc1cc(CN2CCN(c3ccc(Cl)cc3)CC2)cc(OC)c1O | 15% |
| CCCCC(C(=O)Nc1ccccc1)N1C(=O)c2ccccc2C1=O (stereo not shown) | -2.88% |

| SMILES | % Inhibition @ 10 uM |
| --- | --- |
| C=Cc1ccc(Cn2c(C)c(CNCCc3ccc(Cl)cc3)c(C(=O)O)c2C)cc1 | 10.2% |
| COc1ccc(NCC2CCCCC2)cc1 | -4.14% |
| CC(C)=C1SC(N2CCN(c3ccccc3C)CC2)=NC1=O | -2.17% |
| CC(=O)N1CCN(Cc2ccccc2F)CC1 | -6% |
| CC(C)c1ccccc1OCC(=O)Nc1ccc(S(=O)(=O)Nc2ccccn2)cc1 | 2.13% |
| O=C1C2C(c3ccccc3)C=CC(c3ccccc3)C2C(=O)N1n1cnnc1 (stereo not shown) | -5.28% |
| COc1ccc(Br)cc1CNC1CCCC1 | 1.84% |
| CCOC(=O)Nc1ccc2c(c1)N(C(N)=O)c1ccccc1S2 | 3.96% |
| C=CCSc1nc(-c2ccccc2)cc(-c2ccccc2)c1C#N | -2% |
| COc1ccc(-c2nc(NC(C)=O)sc2-c2ccc(OC)cc2)cc1 | -0.597% |
| O=C(Nc1sc2c(c1C(=O)O)CCCC2)c1ccc(Br)cc1 | -4.31% |
| O=C1C2C(C(=O)N1c1ccccc1F)C2(c1ccccc1)c1ccccc1 (stereo not shown) | 4.03% |
| COCCN1C(=O)C(O)=C(C(=O)c2ccccc2)C1c1ccc(O)c(OC)c1 (stereo not shown) | 0.35% |
| Cc1ccc(S(=O)(=O)N2CCC(C(=O)N3CCC(C(=O)NCC4CCCO4)CC3)CC2)cc1 (stereo not shown) | -4.97% |
| Cc1cc(-c2ccc(S(=O)(=O)N3CCc4ccccc4C3)cc2)on1 | -7.28% |
| O=C(CNS(=O)(=O)c1cccs1)N1CCCCCC1 | -3.05% |
| CC(=O)N1N=C(c2ccccc2)CC1c1cccc(Cl)c1 (stereo not shown) | -3.04% |
| CCC(O)CN1CCN(c2ccc(C3CCCC3)cc2)CC1 (stereo not shown) | 1.19% |
| CCOc1ccc(C(=O)C(CN2CCCC2)c2ccccc2)cc1 (stereo not shown) | 0.408% |
| CCOc1ccc(C(=O)Nc2ccccc2C(C)C)cc1 | 3.44% |
| COc1ccc(Cc2nnc(NC(=O)c3ccc(C(C)(C)C)cc3)s2)cc1 | -0.769% |
| CN1C(=O)/C(=C\c2ccc3c(c2)OCO3)S/C1=N/c1ccccc1 | -6.17% |
| Cc1ccc(S(=O)(=O)N2CCN(Cc3ccccc3)CC2)cc1 | -5.41% |
| CCCCOc1ccc(/C=C(\C#N)c2nc(-c3ccc(OCC)cc3)cs2)cc1 | -6.07% |
| CC(C)OC(=O)c1cc2ccc(O)cc2oc1=O | -1.96% |

| SMILES | % Inhibition @ 10 uM |
| --- | --- |
| COc1ccc(OC)c(NC(=O)C(c2ccccc2)c2ccccc2)c1 | -0.771% |
| CC(C)Cc1ccc(S(=O)(=O)NC2CCCC(C)C2C)cc1 (stereo not shown) | 6.8% |
| CCN1CCN(C(=O)C2=CC(c3ccc(OC)cc3)=NS(=O)(=O)N2C)CC1 | 6.98% |
| O=C(NCCC1=CCCCC1)C(Cc1ccccc1)NS(=O)(=O)c1cccc2cccnc12 (stereo not shown) | 2.6% |
| CC(Cc1ccccc1)NC(=O)/C=C/c1ccccc1 (stereo not shown) | -1.64% |
| CCOC(=O)c1c(NC(=O)CSc2cn(C)c3ccccc23)sc2c1CCC2 | 8.32% |
| O=C(NCCc1ccccc1)C(=O)NC1CCCCC1 | -0.414% |
| CCOC(=O)c1cc2c(=O)n3ccccc3nc2n(CCCOC)/c1=N\C(=O)/C=C/c1ccccc1 | -2.9% |
| COc1ccc(C2N(S(C)(=O)=O)CCCN2S(=O)(=O)c2ccc(C)cc2)cc1 (stereo not shown) | 3.54% |
| CC(C)(C)OC(=O)N1CCC(c2c(C(=O)N3CCC(c4ccccc4)C3)cnn2C(C)(C)C)CC1 (stereo not shown) | 6.36% |
| CCOC(=O)c1cnc2ncnn2c1C | 2.39% |
| O=C(Nc1ccc(-c2ccc(Cl)cc2)cc1)NS(=O)(=O)c1ccccc1Cl | -4.61% |
| COc1ccc(O)c(CN2CC=C(c3ccc(F)cc3)CC2)c1 | 4.68% |
| Cc1cc(O)c(C(=O)/C=C/c2cc(Br)ccc2O)c(=O)o1 | -0.0369% |
| Nc1nc2c3ccccc3nc(C3CC3)n2n1 | -3.33% |
| Brc1ccc2c(c1)CN(C1CCCCC1)CO2 | -5.75% |
| Cc1cc(C)c2c(n1)nn1c(C)c(CCC(=O)N3CCC(Cc4ccccc4)CC3)c(C)nc21 | -2.45% |
| O=[N+]([O-])c1ccccc1CN1CCN(c2cccc(C(F)(F)F)c2)CC1 | 1.96% |
| O=C1NC(=O)/C(=C\c2ccc(N3CCOCC3)cc2)N1 | -6.32% |
| CCN(CC)c1ccc(NC(=O)COc2ccc(C)cc2)cc1 | 1.7% |
| COc1ccc(C2CC(C(F)(F)F)n3nc(C(=O)NCc4cn(C)nc4C)cc3N2)cc1OC (stereo not shown) | -2.94% |
| O=c1c2c(c(-c3ccccc3)nn1Cc1ccccc1)CCCC2 | -2.71% |
| Cc1ccccc1C(=O)Nc1ccc(Br)cc1 | 5.06% |
| Cc1ccc(C(=O)N2CCN(c3ccc(F)cc3)CC2)cc1 | -1.62% |
| CCCCN(CC)CCNC(=O)CN1C(=O)C(c2ccccc2)Oc2cccnc21 (stereo not shown) | -5.99% |

| SMILES | % Inhibition @ 10 uM |
| --- | --- |
| CCOC(=O)C1CCN(C(=O)c2ccc(F)cc2)CC1 | -2.58% |
| COc1cc(C(=O)NC2CCCCCCC2)cc(OC)c1OC | -7.55% |
| CC1=C(C(=O)OCCC(C)C)C(c2ccc(Br)cc2)NC(=O)N1 (stereo not shown) | 7.28% |
| Cc1nc2scc(C)n2c(=O)c1S(=O)(=O)NC(C)c1ccccc1 (stereo not shown) | 0.128% |
| COc1cc([C@H]2[C@H](C(=O)C(C)(C)C)N3C=Cc4ccccc4[C@H]3C2(C#N)C#N)cc(OC)c1OC | 6.5% |
| CCn1c(C(=O)NCCCN2CCCCC2C)cc2sc(Cl)cc21 (stereo not shown) | -1.37% |
| Cc1cccc(NC(=O)CSc2nc(C)cc(C(F)(F)F)c2C#N)n1 | -4.76% |
| CC(CC(=O)O)Nc1ccc(Oc2ccccc2)cc1 (stereo not shown) | 3.69% |
| Cc1nc2c(nc(C)n2-c2ccccc2)s1 | 2.92% |
| COc1cccc(N2CCN(C3C4CC5CC(C4)CC3C5)CC2)c1 (stereo not shown) | -0.446% |
| CC(C)(C)C(=O)NCc1nc(-c2ccccc2)no1 | -3.22% |
| Cc1nn2c(=O)/c(=C/c3ccc(-c4ccc(F)cc4)o3)sc2nc1=O | -13.4% |
| O=C(COc1ccccc1N1C(=O)C2C3C=CC(C4CC34)C2C1=O)c1ccc(F)cc1 (stereo not shown) | 1.62% |
| O=C(c1ccccc1)N1N=C(c2ccco2)CC1c1ccco1 (stereo not shown) | 1.49% |
| O=S1(=O)C(/C=N/c2cccnc2)=C(O)c2sccc2N1Cc1ccc(Cl)cc1 | 5.41% |
| COc1ccc(Cl)cc1N(CC(=O)NCc1ccccc1C)S(C)(=O)=O | 0.324% |
| CC(=O)c1c(C)oc2c(Cl)cc(NS(=O)(=O)c3cccs3)cc12 | 41.9% |
| Nc1ccc(S(=O)(=O)c2ccc(NC(=O)c3ccccc3Cl)cc2)cc1 | -2.72% |
| COc1cccc2c1Oc1ncccc1N(C(=O)CCC(=O)NCc1ccccn1)C2 | -3.94% |
| Cn1c(=O)c2c(nc(SCCN3CCOCC3)n2Cc2ccccc2Cl)n(C)c1=O | -5.08% |
| COc1ccccc1C1C(C#N)=C(N)Oc2[nH]nc(C(F)(F)F)c21 (stereo not shown) | -3.26% |
| C=Cc1ccc(Cn2c(C)c(CNCCc3ccco3)c(C(=O)O)c2C)cc1 | 2.99% |
| O=C(O)[C@H]1CCCC[C@H]1C(=O)Nc1ccc(Br)c(Cl)c1 | 4.75% |
| COC(=O)c1ccc(-n2nnnc2SCc2ccccn2)cc1 | -1.43% |
| Cc1ccc(S(=O)(=O)N2CCCC2C(=O)NCCC23CC4CC(CC(C4)C2)C3)cc1 (stereo not shown) | 2.79% |
